The list shows a part of the results.

The assay deals with HSkMC (human skeletal muscle cells). Nature of the assay: cytotoxicity call (relative viability < 0.9). The following applies: 10 µM.
Take `C[C@H](CO)N1C[C@H](C)[C@H](CN(C)S(=O)(=O)c2cn(C)cn2)Oc2c(NC(=O)c3cnccn3)cccc2C1=O`: the cytotoxicity call was “inactive”.
As to `C[C@H]1CCCCO[C@H](CN(C)C(=O)Nc2ccc(C(F)(F)F)cc2)[C@@H](C)CN([C@@H](C)CO)C(=O)c2cc(NC(=O)Nc3ccccc3)ccc2O1`, the cytotoxicity call is “inactive”.
With `CC(C)NC(=O)Nc1ccc2c(c1)CC(=O)N([C@@H](C)CO)C[C@@H](C)[C@H](CN(C)Cc1ccc(Oc3ccccc3)cc1)O2` the entry was “inactive”; with `NC1CCN(C(=O)Nc2nncs2)CC1`, “inactive”.
With `COc1ccc(NC(=O)N(C)C[C@@H]2Oc3ccc(NC(=O)Cn4cnnn4)cc3CC(=O)N([C@@H](C)CO)C[C@@H]2C)cc1` the entry was “inactive”.
As for `C[C@@H]1CN([C@H](C)CO)C(=O)c2cc(NC(=O)Nc3cccc4ccccc34)ccc2O[C@@H]1CN(C)Cc1ccc(C(=O)O)cc1`, the cytotoxicity call is “inactive”.
Next, `C[C@@H]1CN([C@@H](C)CO)C(=O)c2cccc(NC(=O)C3CC3)c2O[C@H]1CN(C)Cc1ccc(C(=O)O)cc1`: “inactive”; `Cc1ccc2nncn2n1`: “inactive”; `Cn1cnc(S(=O)(=O)N2C[C@@H](O)COC[C@H]3O[C@H](CC(=O)NCc4cccc(F)c4)CC[C@@H]32)c1`: “inactive”.
Next, `COc1cccc(S(=O)(=O)N(C)C[C@H]2Oc3cc(Br)ccc3S(=O)(=O)N([C@@H](C)CO)C[C@H]2C)c1`: “inactive”; `COc1ccc(NC(=O)Nc2ccc3c(c2)C(=O)N([C@H](C)CO)C[C@H](C)[C@H](CN(C)S(=O)(=O)c2c(C)noc2C)OCCCC[C@@H](C)O3)cc1`: “inactive”; `C[C@@H]1CN([C@@H](C)CO)C(=O)c2c(c3ccccc3n2C)-c2ccccc2CO[C@H]1CN(C)C(=O)Nc1ccc(-c2ccccc2)cc1`: “inactive”.
Next, `Cc1ccc(S(=O)(=O)N(C)C[C@H]2OCCCC[C@@H](C)Oc3ccc(NC(=O)NC4CCCCC4)cc3C(=O)N([C@H](C)CO)C[C@@H]2C)cc1`: “inactive”.
Consider `COc1ccccc1CNC(=O)C[C@@H]1C[C@@H]2c3cc(NC(=O)c4ccc5c(c4)OCO5)ccc3O[C@@H]2[C@H](CO)O1`, for which the cytotoxicity call is “inactive”.
Next, `COc1cccc(S(=O)(=O)N(C)C[C@H]2OCc3cnnn3CCCC(=O)N([C@H](C)CO)C[C@H]2C)c1`: “inactive”; `C[C@@H]1CN([C@H](C)CO)C(=O)c2cccc(NC(=O)NC3CCCCC3)c2O[C@H]1CN(C)Cc1ccc(-c2ccccc2)cc1`: “inactive”; `Cc1sc2ncnc(N3CCC[C@@H](Cn4cc(C(C)(C)N)nn4)C3)c2c1C`: “inactive”.
Next, `Cc1noc(C)c1S(=O)(=O)Nc1ccc2c(c1)CC(=O)N([C@@H](C)CO)C[C@@H](C)[C@@H](CN(C)CC1CC1)O2`: “inactive”.
`COc1ccc(S(=O)(=O)N2C[C@H](O)COC[C@@H]3O[C@H](CC(=O)N[C@H]4CCN(Cc5ccccc5)C4)CC[C@H]32)cc1`: the cytotoxicity call was “inactive”.
Next, `COc1ccc(S(=O)(=O)N(C)C[C@@H]2Oc3c(NS(=O)(=O)c4cn(C)cn4)cccc3C(=O)N([C@@H](C)CO)C[C@@H]2C)cc1`: “inactive”.
With `COc1ccc(CN(C)C[C@@H]2OCCCC[C@H](C)Oc3ccc(NS(=O)(=O)c4ccc(Cl)cc4)cc3C(=O)N([C@@H](C)CO)C[C@@H]2C)cc1`, the cytotoxicity call was “inactive”.
Take `C[C@H](CO)N1C[C@H](C)[C@@H](CN(C)S(=O)(=O)c2ccccc2)OCCCC[C@H](C)Oc2ccc(NC(=O)Nc3ccccc3)cc2C1=O`: the cytotoxicity call is “inactive”.
For `Cc1ccc(S(=O)(=O)N(C)C[C@H]2Oc3ccc(NS(=O)(=O)c4c(C)noc4C)cc3C(=O)N([C@H](C)CO)C[C@@H]2C)cc1`, the cytotoxicity call is “inactive”.
Next, `Cc1ccc(S(=O)(=O)Nc2ccc3c(c2)C(=O)N([C@@H](C)CO)C[C@@H](C)[C@H](CN(C)Cc2ccc(-c4ccccc4)cc2)O3)cc1`: “inactive”.
Next, `COCC#Cc1ccc2c(c1)O[C@@H](CN(C)C(=O)COC)[C@H](C)CN([C@H](C)CO)S2(=O)=O`: “inactive”; `Cc1ccc(S(=O)(=O)N(C)C[C@@H]2Oc3ccc(NC(=O)C4CC4)cc3C(=O)N([C@@H](C)CO)C[C@H]2C)cc1`: “inactive”.
Next, `Cc1c(-c2ccccc2)n(C[C@@H](O)CN)c2ccccc12`: “inactive”; `O=c1ncccn1[C@H]1O[C@H](CO)[C@@H](O)[C@@H]1O`: “inactive”.
As to `C[C@@H]1CCCCO[C@H](CN(C)S(=O)(=O)c2ccc(Cl)cc2)[C@@H](C)CN([C@H](C)CO)C(=O)c2cc(NC(=O)CCC(F)(F)F)ccc2O1`, the cytotoxicity call is “inactive”.
With `c1ccc(-c2nc(-c3cccs3)[nH]c2-c2ccccc2)cc1` the entry was “inactive”.

The values are drawn from the antibiotic and cytotoxicity screens of Wong et al. (2023).
